The source of these data is PubChem BioAssay AID1346428 (National Center for Advancing Translational Sciences (NCATS), 2018).

“And” between values parts separate entries of the source, which are not always exact repeats. Identical values can stand only once. The whole screen tested about 48,000 compounds, of which about 1,200 (2.5%) were called active. Inconclusive results (about 2%) are left out.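 How the source made its calls: active means activation of at least 60% and not above a set upper limit (about 1 call in 100 departs from these limits); inconclusive means activation of 40% to 60%, or above that upper limit; inactive means activation under 40%.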 The list shows a part of the results.

UniProt O75388, sequence (O75388 whole entry, looked up): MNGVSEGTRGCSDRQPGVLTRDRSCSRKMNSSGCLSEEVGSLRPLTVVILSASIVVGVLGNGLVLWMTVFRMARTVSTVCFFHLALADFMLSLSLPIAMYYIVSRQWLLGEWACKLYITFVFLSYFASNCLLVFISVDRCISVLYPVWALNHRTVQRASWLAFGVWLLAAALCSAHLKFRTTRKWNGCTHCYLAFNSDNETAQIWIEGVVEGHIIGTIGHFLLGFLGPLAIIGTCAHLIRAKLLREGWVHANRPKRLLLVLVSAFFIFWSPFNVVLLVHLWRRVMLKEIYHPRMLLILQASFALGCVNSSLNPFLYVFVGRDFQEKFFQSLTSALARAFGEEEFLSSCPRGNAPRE

The target in the experiment is Probable G-protein coupled receptor 32 (Homo sapiens) (UniProt O75388). Nature of the experiment: qHTS for Agonists of Human Resolvin D1 Receptor DRV1. Further: 0% is about no effect. Conditions: CHO-K1 GPR32 beta-arrestin PathHunter luminescence, 90 min; at 76.9 µM; stronger effect = higher value; zero percent set by DMSO-only wells. The method, boiled down:
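Readings come from a cell-based beta-arrestin complementation format: CHO-K1 GPR32 stable cells (2,500/well) treated 90 min with compounds, then beta-Gal substrate added for 1 h before chemiluminescence imaging.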
For `COc1cccc(CNC(=O)c2ccc(-c3nc(COc4ccccc4)c(C)o3)cc2)c1`, the activation was inactive: -2.12%. With `Cc1ccc(CCNC(=O)c2cc3c(s2)-c2c(C)cccc2OC3)cc1`, the activation was inactive: -0.0658%.

In the case of `CCOC(=O)N1CCc2c(sc3c2c(=O)n(-c2ccccc2C(F)(F)F)c(=O)n3Cc2ccccc2C)C1`, the activation is inactive: -22.8%.

As to `O=C(Cc1ccc(F)cc1)NCc1ccc2c(c1)CCN2C(=O)c1ccc(F)cc1`, the activation was inactive: -13.1%. Next, `Cc1ccc(NS(=O)(=O)c2ccc(-n3cccn3)cc2)cc1Cl`: active: 73.2%; `O=C(CSc1nnc2ccc3ccccc3n12)Nc1ccccc1Cl`: inactive: -9.47%; `COc1cccc(-n2c(SCC(=O)Nc3c(C)cc(C)cc3C)nc3c([nH]c4ccccc43)c2=O)c1`: inactive: 10.4%.

Consider `COC(=O)c1cc2oc3ccccc3c2n1CC(=O)Nc1ccc(Cl)cc1F`, for which the activation is inactive: 43.5%. Take `COc1cccc2c1cc1c(=O)n(CC(=O)NCc3ccc(C)o3)nc(C)n12`: the activation is inactive: -18%.

For the compound `O=C(COc1ccc(Cl)cc1)Nc1ccc2nc(SCC(=O)N3CCCC3)sc2c1`, the activation was inactive: -6.41%.

Turning to `COc1ccc(OC)c(NC(=O)CSc2ccc(-c3sc(C)nc3C)nn2)c1`, the activation is inactive: 4.27%. Consider `Cc1cccc(-c2nc(CCNC(=O)Cc3ccccc3)cs2)c1`, for which the activation is inactive: -13%. Regarding `COc1ccc(CCNC(=O)c2ccc3c(c2)N(Cc2ccc(F)cc2)C(=O)CS3)cc1OC`, the activation was inactive: -11.3%.

Consider `Cc1nn(C(=O)c2cccc(Cl)c2)c(C)c1S(=O)(=O)N1CCOCC1`, for which the activation was inactive: 6.13%. The result for `CCC(=O)N1CCc2cc(S(=O)(=O)NC(CC(C)C)C(=O)NCCc3ccccc3)ccc21` (configuration not stated) reads inactive: -13.3%; that for `COc1ccc(CCNC(=O)C(=O)NCC(c2ccco2)S(=O)(=O)c2cccs2)cc1OC` (configuration not stated), inactive: -6.03%; that for `O=C(COc1ccccc1-c1nc(-c2ccccc2)no1)Nc1cccc([N+](=O)[O-])c1`, inactive: -0.578%. The result for `OC(CCN1CCCCC1)(c1ccccc1)C1CCCCC1` (configuration not stated) reads inactive: -3.53% and inactive: -1.68%. The result for `O=C(c1nc(-c2ccc(Cl)cc2)n2c1CCCCC2)N1CCN(c2ccccc2)CC1` reads inactive: -0.801%; that for `CCOC(=O)c1cc(-c2ccc(F)cc2)n(CC(=O)NC2CCCCCC2)c1C`, inactive: -13%; that for `Cc1nc2sccn2c(=O)c1S(=O)(=O)Nc1cc(Cl)ccc1O`, inactive: -19.9%.

Take `CCCCN1CCc2nc(Nc3ccc(OC)cc3OC)ncc2C1`: the activation was inactive: -2.87%. Next, `COc1ccc(NC(=O)c2c(NC(=O)COc3ccccc3)sc3c2CCC(C(C)(C)C)C3)cc1` (configuration not stated): inactive: 3.79%. On to `Cc1ccc(CN(Cc2ccco2)C(=O)c2ccc(OCC(C)C)cc2)cc1`, for which the activation was inactive: -19.9%. Next, `Cc1ccc2c(c1)N(C(=O)N1CCC(C(=O)NCCc3ccc(Cl)cc3)CC1)CC(C)O2` (configuration not stated): inactive: -7.6%; `Cc1ccc(C)c(N2CCN(C(=O)c3cc4c(=O)n(Cc5ccccc5)ccc4nc3C)CC2)c1`: inactive: 1.99%; `Cc1ccc(-n2nc(C)c3c(C)c(CCC(=O)NCc4ccccc4Cl)c(C)nc32)cc1C`: inactive: 4.34%.

On to `CCOc1cccc2c1N[C@@H](c1ccc(C(=O)O)cc1)[C@H]1CC=C[C@@H]21`, for which the activation was inactive: -11.8%. The result for `Cc1cccc(NS(=O)(=O)c2ccc3[nH]c4c(c3c2)CCCCCC4)c1` reads inactive: 6.31%. The result for `COc1ccc(NC(=O)C(Cc2ccccc2)NS(=O)(=O)c2ccc3c(c2)CCC(=O)N3)c(OC)c1` (configuration not stated) reads inactive: 14.4%. The result for `Cc1cccc(Cn2cccc2CNS(=O)(=O)c2ccccc2F)c1` reads inactive: 19.8%; that for `CCc1ccc(CNC(=O)Cn2nc(C)n3c(cc4cc(C)ccc43)c2=O)cc1`, inactive: -10.1%; that for `CCc1ccc(NC(=O)CN2C(=O)C(c3ccc(C)cc3)=NC23CCCCC3)cc1`, inactive: -24.3%. With `CCOC(=O)c1cccc(NC(=O)c2cc3ccccn3n2)c1`, the activation is inactive: 13.4%.

Take `COc1ccc2sc(N(Cc3cccnc3)C(=O)C3CCCCC3)nc2c1`: the activation is inactive: -29.4%.

As to `O=C(Cn1c(=O)n(CC2CCC(C(=O)NCCc3ccccc3)CC2)c(=O)c2ccccc21)Nc1ccccc1` (configuration not stated), the activation is inactive: 0.0094%. Take `CCCCOc1ccc(C2=NC(c3ccncc3)=Nc3ccc(OCC)cc3N2)cc1`: the activation is inactive: -10.7%. The result for `CCOc1ccccc1CNC(=O)C1CCN(c2nnc(-n3c(C)ccc3C)s2)CC1` reads inactive: -27.9%; that for `Cc1cc(C)n2nc(CNS(=O)(=O)c3ccc(C)c(C)c3)nc2n1`, inactive: -3.66%. The result for `CC(C)OCCCn1c(SCC(=O)c2ccccc2)nc2c(sc3ccccc32)c1=O` reads inactive: -9.33%; that for `Cc1ccc2c(Cl)cc(Cl)c(O)c2n1`, inactive: -29.4%; that for `Cc1nn(-c2ccc(F)cc2)c(-n2cccc2)c1C(=O)NCCc1ccc(Cl)cc1`, inactive: -21.1%.

In the case of `CCN(CC)CCOC(=O)c1ccc(NC(=O)Cn2ncc3c2-c2cc(C)ccc2OC3)cc1`, the activation is inactive: 2.74%.

`O=C(C1CCN(S(=O)(=O)c2cccc3nonc23)CC1)N1CCN(c2cccc(Cl)c2)CC1`: the activation is inactive: -5.08%.

`COc1ccc(NC(=O)CSc2nc3nc(C)c(Cc4ccccc4)c(C)n3n2)cc1OC`: the activation is inactive: -1.46%. The result for `Cc1ccc(Cn2c(=O)c3ccccc3n3c(-c4cccc(O)c4)nnc23)cc1` reads inactive: -4.89%. With `CC(C)COc1ccc(C(=O)Nc2cc(-c3ccccc3)no2)cc1`, the activation was inactive: 11.4%. The result for `O=C(Cn1cnc2ccccc2c1=O)NCCC(=O)Nc1ccc(F)cc1` reads inactive: -1.25%; that for `COc1cccc(N2CCN(S(=O)(=O)c3cc(-c4cc(C)no4)ccc3C)CC2)c1`, inactive: 3.63%; that for `CCCCN(CC)CCCNC(=O)Cn1ncc2c([nH]c3ccc(C)cc32)c1=O`, inactive: 8.78%. On to `O=c1c2cn[nH]c2nc(SCc2c(F)cccc2F)n1-c1ccc(Cl)cc1`, for which the activation was inactive: -20.3%. Next, `CCCCN1C(=O)C(O)(CC(=O)c2ccc(C)cc2C)c2cc(Br)ccc21` (configuration not stated): inactive: -3.71%; `O=C(NCc1ccco1)c1ccc2c(c1)N(Cc1ccc(F)cc1)C(=O)c1ccccc1S2(=O)=O`: inactive: -32.3%. With `CCOc1cccc(C(=O)Nc2nc3c(s2)CC(C(C)(C)C)CC3)c1` (configuration not stated), the activation was inactive: -11.9%. Next, `COc1ccc(N(CC(=O)N2CCN(c3ccc(F)cc3)CC2)S(=O)(=O)c2c(C)noc2C)cc1`: inactive: -7.36%; `COc1cccc(CNC(=O)c2cc(Sc3cccc(Cl)c3)nc3ccccc23)c1`: inactive: -3.09%. As to `Cc1ccc(/C=C/C(=O)Nc2ccccc2C(N)=O)o1`, the activation was inactive: 17.5%. Consider `COc1cc(OC)cc(-c2nc3n(n2)C(c2ccccc2)C(C(N)=O)=C(C)N3)c1` (configuration not stated), for which the activation was inactive: -5.43%. As for `CC(=O)N1c2ccc(S(=O)(=O)Nc3ccc(Cl)cc3C)cc2CC1C` (configuration not stated), the activation was inactive: -1.79%. For `COc1ccccc1NC(=O)COc1ccc(-c2nn(C)c(=O)c3ccccc23)cc1`, the activation was active: 95.1%. `Cc1c(C(=O)N2CCOCC2)oc2c1-c1nn(CC(=O)NCc3cccc(Cl)c3)cc1CC2`: the activation was inactive: -3.51%. For `Cc1sc(-c2cc3c([nH]c2=O)CC(c2ccccc2)CC3=O)nc1-c1ccc(Cl)cc1` (configuration not stated), the activation is inactive: 37.9%. Turning to `CCOC(=O)c1c(NC(=O)COc2cccc(C)c2C)sc2c1CCC(CC)C2` (configuration not stated), the activation was inactive: 6.2%.

Turning to `Cn1c(=O)oc2cc(S(=O)(=O)N3CCC(C(=O)N4CCN(c5ccccc5F)CC4)CC3)ccc21`, the activation is inactive: 0.958%. With `COc1cc(Cl)c(C)cc1NC(=O)CC(c1ccc(F)cc1)N1Cc2ccccc2C1=O` (configuration not stated), the activation is inactive: -16.7%. Next, `CC(C)(C)OC(=O)N1CCC(c2c(C(=O)NCCc3ccccc3)cnn2-c2ccc(F)cc2F)CC1`: inactive: -29.6%. The result for `Cc1ccc(CCNC(=O)c2c(C)oc3ncn(CC(C)C)c(=O)c23)cc1` reads inactive: -4.76%; that for `COc1ccc(-c2c(C)c3ccc(O)c(CN4CCN(CCO)CC4)c3oc2=O)cc1OC`, inactive: -1.94%; that for `O=C(NCc1cccc(F)c1)c1ccc(NC(=O)c2nsc3ccccc23)cc1`, inactive: -12.1%.

`CCCCS(=O)(=O)c1oc(-c2ccc(F)cc2)nc1S(=O)(=O)c1ccc(C)cc1`: the activation is inactive: 12.7%. With `COc1ccc(C)cc1NC(=O)Nc1cccc(-c2noc(C)n2)c1`, the activation was inactive: -4.37%. Next, `CCc1ccc(NC(=O)Cn2c(=O)n(CCC(=O)NCCc3ccc(Cl)cc3)c(=O)c3ccccc32)cc1`: inactive: 0.616%. The result for `Cc1noc(/C=C/c2ccccc2F)c1S(=O)(=O)N1CCC(C(=O)N2CCOc3ccccc32)CC1` reads inactive: -3.06%; that for `COc1ccc(C(=O)Nc2nc(-c3nnn(-c4ccc(C(C)C)cc4)c3C)ns2)cc1`, inactive: 4.64%; that for `COc1ccccc1CCNC(=O)C(C)Sc1nc(-c2ccccc2)cc(C(F)(F)F)n1` (configuration not stated), inactive: 3.74%. The result for `Cc1ccc(-c2cc(-c3ccccc3)c(C#N)c(SCC(O)CS(=O)(=O)Cc3ccccc3)n2)cc1` (configuration not stated) reads inactive: -7.78%; that for `COc1ccc(F)cc1S(=O)(=O)Nc1cccc(-c2ccc(N3CCC(C)CC3)nn2)c1`, inactive: -5.79%; that for `O=C(Cn1ncn2c(cc3ccccc32)c1=O)NCc1ccc(F)cc1`, inactive: 8.48%. Turning to `CCCOc1ccc(CNC(=O)c2[nH]c3cc(OC)ccc3c2Sc2ccccc2)cc1`, the activation is inactive: -9.33%. For the compound `CC(=O)Nc1ccc(N(C(=O)Cn2nnc3ccccc32)C(C(=O)NCc2ccccc2)c2ccc(C)cc2)cc1` (configuration not stated), the activation is inactive: -25.7%. For `COc1ccc(CCNC(=O)c2c(C)oc3ncn(C)c(=O)c23)c(OC)c1`, the activation is inactive: -9.82%. Regarding `CCN(C(=O)CSc1nc2ccccc2n1Cc1ccc(F)cc1Cl)c1ccccc1`, the activation was inactive: -12.7%.
